# Experimental data reported in patent US9963467B2, “Boronic acid derivatives and therapeutic uses thereof” (Rempex Pharmaceuticals, Inc., priority 2014, dated 2018).
# Test system: strains producing class A (KPC) and class D (OXA-48) carbapenemases
# Assay: Biapenem MIC of test strains
# Settings: read-out: Biapenem MIC of test strains
smiles,measurement,value
"C[C@@H](O)[C@H]1C(=O)N2C(C(=O)[O-])=C(SC3Cn4cnc[n+]4C3)[C@H](C)[C@H]12 (stereo partly shown) [Biapenem, reference compound]",MIC,16 to 32 µg/mL
